T1: high affinity trimeric IL-2R (IL-2Rα, IL-2Rβ and IL-2Rγ) on HEK-Blue IL-2 cells (UniProt P01589 22-272; P14784 27-551; P31785 23-369)
T1 sequence (looked up) 1: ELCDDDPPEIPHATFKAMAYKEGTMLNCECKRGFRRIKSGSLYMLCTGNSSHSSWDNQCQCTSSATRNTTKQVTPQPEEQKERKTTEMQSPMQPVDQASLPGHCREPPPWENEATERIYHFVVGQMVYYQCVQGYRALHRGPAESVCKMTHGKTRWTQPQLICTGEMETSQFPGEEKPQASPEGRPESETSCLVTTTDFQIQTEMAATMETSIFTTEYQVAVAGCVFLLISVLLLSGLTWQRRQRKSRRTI
T1 sequence (looked up) 2: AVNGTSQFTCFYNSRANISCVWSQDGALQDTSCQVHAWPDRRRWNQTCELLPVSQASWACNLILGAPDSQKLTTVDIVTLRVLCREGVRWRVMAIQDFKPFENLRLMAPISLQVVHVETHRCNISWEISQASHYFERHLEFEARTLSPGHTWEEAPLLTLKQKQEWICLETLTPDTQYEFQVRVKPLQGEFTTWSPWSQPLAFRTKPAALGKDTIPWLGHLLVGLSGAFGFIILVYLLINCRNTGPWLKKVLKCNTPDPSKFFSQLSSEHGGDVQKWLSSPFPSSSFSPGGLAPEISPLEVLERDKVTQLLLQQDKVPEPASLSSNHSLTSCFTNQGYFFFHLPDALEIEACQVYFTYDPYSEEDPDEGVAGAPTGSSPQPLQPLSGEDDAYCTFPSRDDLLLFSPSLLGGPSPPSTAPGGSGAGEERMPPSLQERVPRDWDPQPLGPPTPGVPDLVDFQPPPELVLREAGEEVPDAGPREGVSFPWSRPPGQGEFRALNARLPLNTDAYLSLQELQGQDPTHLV
T1 sequence (looked up) 3: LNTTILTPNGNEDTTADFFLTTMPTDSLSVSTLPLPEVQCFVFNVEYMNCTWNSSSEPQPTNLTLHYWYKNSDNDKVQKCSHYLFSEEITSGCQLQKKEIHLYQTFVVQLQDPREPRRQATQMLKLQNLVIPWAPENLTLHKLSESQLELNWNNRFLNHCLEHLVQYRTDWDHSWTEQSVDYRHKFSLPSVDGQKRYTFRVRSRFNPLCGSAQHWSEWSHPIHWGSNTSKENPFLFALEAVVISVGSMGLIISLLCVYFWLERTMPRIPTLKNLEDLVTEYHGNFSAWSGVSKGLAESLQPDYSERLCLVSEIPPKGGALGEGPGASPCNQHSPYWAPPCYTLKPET


Legend:
[1] = target: T1, high affinity trimeric IL-2R (IL-2Rα, …); assay: cell-based or functional assay
[2] = target: T2, CD47 at the surface of Peak cells (human, UniProt Q08722); assay: flow cytometry, Peak cells, before cleavage
T2 construct: whole, on cells; also called cell surface CD47
Procedure: (§1) Binding activity of antibody-cytokine/receptor fusions before and after cleavage was also evaluated by flow cytometry. Peak cells derived from HEK 293 which are human cells expressing CD47 were used to evaluate masking efficacy and binding recovery to CD47 by flow cytometry. Peak cells were diluted in cold FACS buffer (PBS, 2% BSA) to 1.2×10⁶ cells/mL. 3×10⁵ cells/well were added in a 96 well V-bottom plate. The plate was then centrifugated for 5 min at 1300 rpm, 4° C. Supernatants were removed and cells were washed twice using FACS buffer. A serial dilution of antibody-cytokine/receptor fusions previously digested with MMP-9 or not digested as described above was prepared in FACS buffer. An irrelevant antibody was included. Then, 150 μL of each diluted antibody were added in corresponding well and incubated for 30 min at 4° C. Cells were washed twice with FACS buffer and 100 μL of a mouse anti human Fc-PE conjugated secondary antibody were added and the plate was incubated for 20 min at 4° C. Cells were then washed twice with FACS buffer. Finally, 150 μL of SYTOX blue dead cell stain (ThermoFisher) diluted to 1/5000 in FACS buffer were added before detection by flow cytometry with Cytoflex (Beckman Coulter). Acquisition was performed with 10000 events for each well. Data were analyzed by FlowJo software.

[3] = target: T3, His-tagged human CD47 (human, UniProt Q08722 part only, limits assumed); assay: BLI, His-CD47 on HIS1K sensor, antibody 15 µg/mL
T3 construct: loaded on HIS1K biosensors at 2.5 µg/mL; also called target antigen; not shown: His tag
Procedure: The capacity of the masking domains to inhibit binding activity of the antibody was evaluated by Bio-Layer Interferometry (BLI). […] Binding experiments were performed to evaluate the masking efficiency and the binding recovery after cleavage of the masking domains. BLI was performed on an Octet RED96 system (Sartorius). His-tagged human CD47 was diluted at 2.5 μg/mL in Kinetic Buffer (KB) (Sartorius) and loaded on HIS1K biosensors (anti-His tag antibody biosensors, Sartorius) for 300 seconds. Loaded biosensors were dipped into antibodies diluted at 15 μg/mL in KB for 300 seconds to monitor association. Then, biosensors were transferred in KB for dissociation for 60 seconds. Binding profiles were then analyzed with ForteBio Data Analysis software.

[4] = target: T2, CD47 at the surface of Peak cells; assay: flow cytometry, Peak cells; EC50 before / EC50 after cleavage
Procedure: as §1

| EC50 before cleavage IL-2, HEK Blue IL-2 αβγ reporter assay [1] | EC50 ratio (BC/AC), HEK Blue IL-2 αβγ reporter assay [1] | EC50 [2] | Binding before cleavage (BLI) [3] | Binding recovery (BC/AC) [4] | Binder |
| --- | --- | --- | --- | --- | --- |
| 0.19 nM | 25 | 31.6 nM | 0.6 nm | 80 | pNOVI V2K K91_A_IL-2_1_153_CM1 VKCK_IL-2Rα_1_238_CM1_IL-2Rβ_27_239_CM1 VHCH (antibody, human IgG1, kappa, masked K91 fusion, uncleaved; also called n450; construct No 450) light: [about 150 residues left out]GGGGSVHMPLGFLGPGGSDIQMTQSPSSLSASVGDRVTITCNVDQVIANWLNWYQQKPGKAPKLLIYAASSLQSGVPSRFSGSGSGTDFTLTISSLQPEDFATYYCQQMHPRAPKQFGQGTKVEIKRTVAAPSVFIFPPSDEQLKSGTASVVCLLNNFYPREAKVQWKVDNALQSGNSQESVTEQDSKDSTYSLSSTLTLSKADYEKHKVYACEVTHQGLSSPVTKSFNRGEC heavy: ELCDDDPPEIPHATFKAMAYKEGTMLNCECKRGFRRIKSGSLYMLCTGNSSHSSWDNQCQCTSSATRNTTKQVTPQPEEQKERKTTEMQSPMQPVDQASLPGHCREPPPWENEATERIYHFVVGQMVYYQCVQGYRALHRGPAESVCKMTHGKTRWTQPQLICTGEMETSQFPGEEKPQASPEGRPESETSCLVTTTDFQIQTEMAATMETSIFTTEGGGGSVHMPLGFLGPGGSAVNGTSQFTCFYNSRANISCVWSQDGALQDTSCQVHAWPDRRRWNQTCELLPVSQASWACNLILGAPDSQKLTTVDIVTLRVLCREGVRWRVMAIQDFKPFENLRLMAPISLQVVHVETHRCNISWEISQASHYFERHLEFEARTLSPGHTWEEAPLLTLKQKQEWICLETLTPDTQYEFQVRVKPLQGEFTTWSPWSQPLAFRTKPAALGKDGGGGSVHMPLGFLGPGGS[about 120 residues left out][about 100 residues left out][human IgG1 Fc left out] |
| 0.1 nM | 9 | 25.7 nM | 0.7 nm | 61 | pNOVI V2K K91_A2_IL-2_1_153_CM1 VKCK IL-2Rα_1_238_CM1_IL-2Rβ_27_239_CM1 VHCH (antibody, human IgG1, kappa, masked K91 fusion, uncleaved; also called n530; construct No 530) light: [about 150 residues left out]GGGGSVHMPLGFLGPGGSDIQMTQSPSSLSASVGDRVTITCNVDQVIANWLNWYQQKPGKAPKLLIYAASSLQSGVPSRFSGSGSGTDFTLTISSLQPEDFATYYCQQMHPRAPKQFGQGTKVEIKRTVAAPSVFIFPPSDEQLKSGTASVVCLLNNFYPREAKVQWKVDNALQSGNSQESVTEQDSKDSTYSLSSTLTLSKADYEKHKVYACEVTHQGLSSPVTKSFNRGEC heavy: ELCDDDPPEIPHATFKAMAYKEGTMLNCECKRGFRRIKSGSLYMLCTGNSSHSSWDNQCQCTSSATRNTTKQVTPQPEEQKERKTTEMQSPMQPVDQASLPGHCREPPPWENEATERIYHFVVGQMVYYQCVQGYRALHRGPAESVCKMTHGKTRWTQPQLICTGEMETSQFPGEEKPQASPEGRPESETSCLVTTTDFQIQTEMAATMETSIFTTEGGGGSGGGGSVHMPLGFLGPGGSAVNGTSQFTCFYNSRANISCVWSQDGALQDTSCQVHAWPDRRRWNQTCELLPVSQASWACNLILGAPDSQKLTTVDIVTLRVLCREGVRWRVMAIQDFKPFENLRLMAPISLQVVHVETHRCNISWEISQASHYFERHLEFEARTLSPGHTWEEAPLLTLKQKQEWICLETLTPDTQYEFQVRVKPLQGEFTTWSPWSQPLAFRTKPAALGKDGGGGSGGGGSVHMPLGFLGPGGS[about 120 residues left out][about 100 residues left out][human IgG1 Fc left out] |
| 0.12 nM | 19 | 31.8 nM | 0.6 nm | 96 | pNOVI V2K K91_A1_IL-2_1_153_CM1 VKCK IL-2Rα_1_238_CM1_IL-2Rβ_27_239_CM1 VHCH (antibody, human IgG1, kappa, masked K91 fusion, uncleaved; also called n471; construct No 471) light: [about 150 residues left out]GGGGSVHMPLGFLGPGGSDIQMTQSPSSLSASVGDRVTITCNVDQVIANWLNWYQQKPGKAPKLLIYAASSLQSGVPSRFSGSGSGTDFTLTISSLQPEDFATYYCQQMHPRAPKQFGQGTKVEIKRTVAAPSVFIFPPSDEQLKSGTASVVCLLNNFYPREAKVQWKVDNALQSGNSQESVTEQDSKDSTYSLSSTLTLSKADYEKHKVYACEVTHQGLSSPVTKSFNRGEC heavy: ELCDDDPPEIPHATFKAMAYKEGTMLNCECKRGFRRIKSGSLYMLCTGNSSHSSWDNQCQCTSSATRNTTKQVTPQPEEQKERKTTEMQSPMQPVDQASLPGHCREPPPWENEATERIYHFVVGQMVYYQCVQGYRALHRGPAESVCKMTHGKTRWTQPQLICTGEMETSQFPGEEKPQASPEGRPESETSCLVTTTDFQIQTEMAATMETSIFTTEGGGGSGGGGSVHMPLGFLGPGGSAVNGTSQFTCFYNSRANISCVWSQDGALQDTSCQVHAWPDRRRWNQTCELLPVSQASWACNLILGAPDSQKLTTVDIVTLRVLCREGVRWRVMAIQDFKPFENLRLMAPISLQVVHVETHRCNISWEISQASHYFERHLEFEARTLSPGHTWEEAPLLTLKQKQEWICLETLTPDTQYEFQVRVKPLQGEFTTWSPWSQPLAFRTKPAALGKDGGGGSVHMPLGFLGPGGS[about 120 residues left out][about 100 residues left out][human IgG1 Fc left out] |
| 0.14 nM | 10 | 39.4 nM | 0.6 nm | 68 | pNOVI V2K K91_A3_IL-2_1_153_CM1 VKCK IL-2Rα_1_238_CM1_IL-2Rβ_27_239_CM1 VHCH (antibody, human IgG1, kappa, masked K91 fusion, uncleaved; also called n545; construct No 545) light: [about 150 residues left out]GGGGSGGGGSVHMPLGFLGPGGSDIQMTQSPSSLSASVGDRVTITCNVDQVIANWLNWYQQKPGKAPKLLIYAASSLQSGVPSRFSGSGSGTDFTLTISSLQPEDFATYYCQQMHPRAPKQFGQGTKVEIKRTVAAPSVFIFPPSDEQLKSGTASVVCLLNNFYPREAKVQWKVDNALQSGNSQESVTEQDSKDSTYSLSSTLTLSKADYEKHKVYACEVTHQGLSSPVTKSFNRGEC heavy: ELCDDDPPEIPHATFKAMAYKEGTMLNCECKRGFRRIKSGSLYMLCTGNSSHSSWDNQCQCTSSATRNTTKQVTPQPEEQKERKTTEMQSPMQPVDQASLPGHCREPPPWENEATERIYHFVVGQMVYYQCVQGYRALHRGPAESVCKMTHGKTRWTQPQLICTGEMETSQFPGEEKPQASPEGRPESETSCLVTTTDFQIQTEMAATMETSIFTTEGGGGSGGGGSVHMPLGFLGPGGSAVNGTSQFTCFYNSRANISCVWSQDGALQDTSCQVHAWPDRRRWNQTCELLPVSQASWACNLILGAPDSQKLTTVDIVTLRVLCREGVRWRVMAIQDFKPFENLRLMAPISLQVVHVETHRCNISWEISQASHYFERHLEFEARTLSPGHTWEEAPLLTLKQKQEWICLETLTPDTQYEFQVRVKPLQGEFTTWSPWSQPLAFRTKPAALGKDGGGGSVHMPLGFLGPGGS[about 120 residues left out][about 100 residues left out][human IgG1 Fc left out] |

— patent US20240254223A1 (NOVIMMUNE, published 2024)
